Assay results: PubChem BioAssay AID651582 (Sanford-Burnham Center for Chemical Genomics, 2012)
“And” between values parts separate entries of the source, which are not always exact repeats. Identical values can stand only once. The list shows a part of the results. Shown are side measurements of this screen, not its main read-out; they come without a call. Most of these compounds were active or inconclusive in the main read-out, so they are no random draw.

Test: inhibitors of triacylglycerol accumulation, primary screen, cell-based, uHTS, fluorescence, H9c2 (AID 651582)
Settings: H9c2 cells, Nile Red lipid (TAG) fluorescence; measured here:; at 12.5 µM; cells loaded with 200 µM oleic acid

Structure (SMILES) | DAPI nuclei signal change (viability), lower = more cytotoxic
CN(Cc1ccc(Cl)s1)C(=O)CCl | -20.5%
Cc1ccc(CNC(=O)c2ccc(N3CCC4(CC3)CC(c3ccccc3)=NO4)c(NC(=O)c3ccc(Cl)c([N+](=O)[O-])c3)c2)cc1 | -10.4%
COc1ccc(C[C@H]2CN3C(=NC[C@@H]3Cc3ccccc3)N2CCNC(=O)c2ccc(C)c(Br)c2)cc1 | -3.99%
CCOc1ccc(CCNC(=O)c2cc3sccc3n2CC)cc1OCC | -15.2%
COc1ccc2[nH]c3c(c2c1)CCN1C(=O)C(CC(=O)NCC24CC5CC(CC(C5)C2)C4)C[C@H](C(=O)N(C(C)C)C(C)C)[C@@]31C (stereo not given in full) | -1.04%
Cc1ccc(NC(=O)CSc2nc3ccc(Nc4nc(N5CCOCC5)nc(N5CCOCC5)n4)cc3s2)cc1 | -16.9%
COc1ccc(CNC(=O)Nc2nc(C(N)Cc3ccc(Cl)cc3)cs2)cc1 (stereo not given) | -15.2%
CN(C)CCCN(C(=O)c1cc(-c2cccs2)nc2ccccc12)c1nc2ccc(F)cc2s1 | 7.05%
CCCCCCCCCCCCCCCC[N+](C)(C)Cc1ccc(F)cc1 | -41.1%
COc1ccc(S(=O)(=O)N(C)C[C@@H]2OCCCC[C@H](C)Oc3ccc(NC(=O)Nc4ccc(C(F)(F)F)cc4)cc3C(=O)N([C@H](C)CO)C[C@H]2C)cc1 | -7.7%
COc1ccc(-c2sc3ccccc3c2-c2ccc(OCCN(C)C)cc2)cc1 | -26.1%
S=c1[nH]nc(-c2cc(-c3ccccc3)n[nH]2)n1/N=C/C(Br)=C/c1ccccc1 | -34.1%
Cc1cccc(CSc2cccc3cccnc23)c1 | -33%
COc1ccc(CNC(=O)C[C@H]2C[C@H](C(=O)N3CCCCC3)[C@@]3(CCc4ccccc4)c4[nH]c5ccc(Cl)cc5c4CCN3C2=O)cc1OC | -5.02%
Oc1ccc2ccccc2c1N=Nc1ccc(F)cc1 | 0.781%
C(=N\NC1=Nc2cccc3cccc1c23)/c1ccccn1 | -14.1%
O=c1cc(-c2cccc(Cl)c2)oc2cccc(O)c12 | -40.3%
CC(C)CN1CCN(C(=O)COC(=O)c2ccc(S(C)(=O)=O)c([N+](=O)[O-])c2)CC1 | -26%
CCC(C)(C)NC(=O)C(c1ccc(OC)cc1)N(Cc1cccs1)C(=O)CCC(=O)Nc1cc(C)on1 (stereo not given) | -10.2%
O=C(C[C@H]1C[C@H](C(=O)N2CCCCC2)[C@@]2(CCc3ccccc3)c3[nH]c4ccc(Cl)cc4c3CCN2C1=O)NCc1cccc(C(F)(F)F)c1 | -19.2%
O=Nc1c(O)c2ccccc2c2ccccc12 | 2.6%
CCN1CCN(Cc2ccc(NC(=O)c3cc(NC(=O)C(=O)c4c[nH]c5ccccc45)cc(OC)c3)cc2C(F)(F)F)CC1 | -37.9% and -40.3%
COc1ccccc1C1=NOC(COc2ccc3c(C)cc(=O)oc3c2)C1 (stereo not given) | -32.6%
CN(C)CCNC=C(C(=O)Nc1ccc(Cl)cc1Cl)C(=O)Nc1ccc(Cl)cc1Cl | -47.4%
c1ccc(CCNc2ccnc3cc4ccccc4cc23)cc1 | 77.4%
COc1cc([C@H]2c3[nH]c4ccccc4c3C[C@H]3C(=O)N4[C@@H](c5cc(OC)c(OC)c(OC)c5)c5[nH]c6ccccc6c5C[C@H]4C(=O)N23)cc(OC)c1OC | -35.8%
CSC1=NC(C(Cl)(Cl)Cl)N=C(c2ccc(C)cc2)N1 (stereo not given) | -33.3%
C=CCn1cnc2c(c1=O)c1nc3ccccc3nc1n2/N=C/c1cc(OC)c(OC)c(OC)c1 | -25.5%

Structure (SMILES) | DAPI nuclei signal change (viability), lower = more cytotoxic
O=C(Cn1ncc(Cl)c(Cl)c1=O)NC(=O)NC1CCCCC1 | -18.2%
O=C(Cn1ncc(Cl)c(Cl)c1=O)N1CCN(Cc2ccccc2)CC1 | -40.7%
Cc1ccc(CN(C)C(=O)CN2C(=O)NC3(CCCc4ccccc43)C2=O)c(C)c1 (stereo not given) | -2.33%
O=C(CN(Cc1ccco1)C(=O)c1cccc(Cl)c1)Nc1c(Cl)cc(Cl)cc1Cl | 5.97%
C#CCN(C[C@@H]1[C@@H](OC(=O)NCc2ccco2)[C@@H](OC(=O)NCc2ccco2)CN(C(=O)OC(C)C)N1C(=O)OC(C)C)S(=O)(=O)c1ccc(C)cc1 | -31.2%
CCOc1ccccc1NC(=O)N1CCCC1C(=O)Nc1ccc(-n2cnnn2)c(C)c1 (stereo not given) | -8.45%
C/C(=N\NC(=O)C12CCC(C)(C(=O)O1)C2(C)C)c1ccccc1O (stereo not given) | -24.3%
COc1ccc(NC(=O)C2(C)Cc3c(-c4cccc(NC(C)=O)c4)ccnc3O2)cn1 (stereo not given) | -36.6%
COc1ccc(OC)c(/C=C/C(=O)OCC(=O)c2c(N)n(C)c(=O)n(C)c2=O)c1 | -38.4%
COc1ccccc1CNC(=O)CN1C(=O)NC(c2ccccc2)(c2ccc(C)c(C)c2)C1=O (stereo not given) | -11.1%
CC[C@@H](C)[C@H](CN[C@H](CNC)C(C)C)NC[C@@H](C)c1ccc(CC(C)C)cc1 | -40.6%
Cc1[nH]c2ccccc2c1/C=N/Nc1nc(Nc2ccc(F)cc2)nc(N2CCOCC2)n1 | -38.7%
CC(C)C[C@@H](CNC(=O)OC(C)(C)C)NC(=O)c1nc[nH]c1C(=O)N[C@@H](CC(C)C)C(=O)CNC[C@H](CC(C)C)NC(=O)c1nc[nH]c1C(=O)N[C@@H](Cc1c[nH]c2ccccc12)C(=O)OC(C)(C)C | -12.9%
C/C(=N\Nc1cc(N2CCOCC2)nc(C)n1)c1ccc(F)cc1 | -27.9%
CCOc1ccc2nc(-c3ccccc3)nc(SCC(=O)Nc3ncc(C)s3)c2c1 | 0.696%
CSc1sc(-c2ccnc(=S)[nH]2)c(-c2ccccc2)c1C#N | -19.5%
CC(=O)NC(c1cc(Cl)c2cccnc2c1O)C(C)C (stereo not given) | 3.73%
Cn1nnnc1Sc1ncnc2scc(-c3cccc(S(C)(=O)=O)c3)c12 | -31.6%
Oc1cc(-c2ccc(N3CCCCC3)nc2)cc2cccnc12 | -4.74%
CNC(=S)NN=C(C)CCCC(C)=NNC(=S)NC | -25.2%
COc1cc(C(=O)N2CCN(c3cc(Cl)ccc3Cl)CC2)cc(OC)c1OC | -40.5%
Cc1cccc(NC(=O)c2nc[nH]c2C(=O)NCCCNC(=O)c2[nH]cnc2C(=O)Nc2cccc(C)c2)c1 | 8.74%
Cc1cccc2sc(NC(=O)CCNS(=O)(=O)c3cccs3)nc12 | 114%
Cc1ccc(C(=O)Nc2cccc(C(F)(F)F)c2)cc1NC(=O)c1nccn1C | -34.4%
COc1ccccc1N(C(=O)CCl)c1cn(C(C)=O)c2ccccc12 | -18.5%
COCCS(=O)(=O)N(Cc1ccc(Br)cc1)[C@@H](C)C(=O)OC | -39.7%
COc1ccccc1NC(=O)c1ccccc1S(=O)(=O)c1ccc([N+](=O)[O-])cc1 | -34.8%
